Results reported in the supplement of paper PMC12423691.
Some of the results follow. Binding of human transcription factors and regulators to the viral nucleoprotein by AlphaScreen, crude cell-free proteins, amounts not normalised, one pass. Fold of the Venus control; higher = more signal. No active / inactive call. Single-pass screen; sequences are the whole Swiss-Prot entries looked up by name.

B1: EN1, Q05925 (protein)
chain: MEEQQPEPKSQRDSALGAAAAATPGGLSLSLSPGASGSSGSGSDGDSVPVSPQPAPPSPPAAPCLPPLAHHPHLPPHPPPPPPQHLAAPAHQPQPAAQLHRTTNFFIDNILRPDFGCKKEQPPPQLLVAAAARGGAGGGGRVERDRGQTAAGRDPVHPLGTRAPGAASLLCAPDANCGPPDGSQPAAAGAGASKAGNPAAAAAAAAAAVAAAAAAAAAKPSDTGGGGSGGGAGSPGAQGTKYPEHGNPAILLMGSANGGPVVKTDSQQPLVWPAWVYCTRYSDRPSSGPRTRKLKKKKNEKEDKRPRTAFTAEQLQRLKAEFQANRYITEQRRQTLAQELSLNESQIKIWFQNKRAKIKKATGIKNGLALHLMAQGLYNHSTTTVQDKDESE
B2: ZGPAT, Q8N5A5 (protein)
chain: MDEESLESALQTYRAQLQQVELALGAGLDSSEQADLRQLQGDLKELIELTEASLVSVRKSSLLAALDEERPGRQEDAEYQAFREAITEAVEAPAAARGSGSETVPKAEAGPESAAGGQEEEEGEDEEELSGTKVSAPYYSSWGTLEYHNAMVVGTEEAEDGSAGVRVLYLYPTHKSLKPCPFFLEGKCRFKENCRFSHGQVVSLDELRPFQDPDLSSLQAGSACLAKHQDGLWHAARITDVDNGYYTVKFDSLLLREAVVEGDGILPPLRTEATESDSDSDGTGDSSYARVVGSDAVDSAQSSALCPSLAVVGSDAVDSGTCSSAFAGWEVHTRGIGSRLLTKMGYEFGKGLGRHAEGRVEPIHAVVLPRGKSLDQCVETLQKQTRVGKAGTNKPPRCRGRGARPGGRPAPRNVFDFLNEKLQGQAPGALEAGAAPAGRRSKDMYHASKSAKRALSLRLFQTEEKIERTQRDIRSIQEALARNAGRHSVASAQLQEKLAGAQRQLGQLRAQEAGLQQEQRKADTHKKMTEF
B3: ZNF577, Q9BSK1 (protein)
chain: MKNATIVMSVRREQGSSSGEGSLSFEDVAVGFTREEWQFLDQSQKVLYKEVMLENYINLVSIGYRGTKPDSLFKLEQGEPPGIAEGAAHSQICPGFVIQSRRYAGKDSDAFGGYGRSCLHIKRDKTLTGVKYHRCVKPSSPKSQLNDLQKICAGGKPHECSVCGRAFSRKAQLIQHQRTERGEKPHGCGECGKTFMRKIQLTEHQRTHTGEKPHECSECGKAFSRKSQLMVHQRTHTGEKPYRCSKCGKAFSRKCRLNRHQRSHTGEKLYGCSVCGKAFSQKAYLTAHQRLHTGDKPYKCSDCGRTFYFKSDLTRHQRIHTGEKPYECSECEKAFRSKSKLIQHQRTHTGERPYSCRECGKAFAHMSVLIKHEKTHIRETAINSLTVEKPSSRSHTSLYMSELIQEQKTVNTVPIEMPSSGTPPLLNKSERLVGRNVVIVEQPFPRNQAFVVNQEFEQRISLTNEVNVAPSVINYILYLTDIVSE
B4: TCF3, P15923 (protein)
chain: MNQPQRMAPVGTDKELSDLLDFSMMFPLPVTNGKGRPASLAGAQFGGSGLEDRPSSGSWGSGDQSSSSFDPSRTFSEGTHFTESHSSLSSSTFLGPGLGGKSGERGAYASFGRDAGVGGLTQAGFLSGELALNSPGPLSPSGMKGTSQYYPSYSGSSRRRAADGSLDTQPKKVRKVPPGLPSSVYPPSSGEDYGRDATAYPSAKTPSSTYPAPFYVADGSLHPSAELWSPPGQAGFGPMLGGGSSPLPLPPGSGPVGSSGSSSTFGGLHQHERMGYQLHGAEVNGGLPSASSFSSAPGATYGGVSSHTPPVSGADSLLGSRGTTAGSSGDALGKALASIYSPDHSSNNFSSSPSTPVGSPQGLAGTSQWPRAGAPGALSPSYDGGLHGLQSKIEDHLDEAIHVLRSHAVGTAGDMHTLLPGHGALASGFTGPMSLGGRHAGLVGGSHPEDGLAGSTSLMHNHAALPSQPGTLPDLSRPPDSYSGLGRAGATAAASEIKREEKEDEENTSAADHSEEEKKELKAPRARTSPDEDEDDLLPPEQKAEREKERRVANNARERLRVRDINEAFKELGRMCQLHLNSEKPQTKLLILHQAVSVILNLEQQVRERNLNPKAACLKRREEEKVSGVVGDPQMVLSAPHPGLSEAHNPAGHM
B5: ASCL3, Q9NQ33 (protein)
chain: MMDNRGNSSLPDKLPIFPDSARLPLTRSFYLEPMVTFHVHPEAPVSSPYSEELPRLPFPSDSLILGNYSEPCPFSFPMPYPNYRGCEYSYGPAFTRKRNERERQRVKCVNEGYAQLRHHLPEEYLEKRLSKVETLRAAIKYINYLQSLLYPDKAETKNNPGKVSSMIATTSHHADPMFRIV
B6: EBF4, Q9BQW3 (protein)
chain: MFPAQDALPRSGLNLKEEPLLPAGLGSVRSWMQGAGILDASTAAQSGVGLARAHFEKQPPSNLRKSNFFHFVLAMYDRQGQPVEVERTAFIDFVEKDREPGAEKTNNGIHYRLRLVYNNGLRTEQDLYVRLIDSMSKQAIIYEGQDKNPEMCRVLLTHEIMCSRCCDRKSCGNRNETPSDPVIIDRFFLKFFLKCNQNCLKNAGNPRDMRRFQVVVSTTVSVDGHVLAVSDNMFVHNNSKHGRRARRLDPSEAATPCIKAISPGEGWTTGGATVIVIGDNFFDGLQVVFGNVLVWSELITPHAIRVQTPPRHIPGVVEVTLSYKSKQFCKGCPGRFVYTALNEPTIDYGFQRLQKVIPRHPGDPERLPKEVLLKRAADLAEALYGVPGSNQELLLKRAADVAEALYSTPRAPGPLAPLAPSHPHPAVVGINAFSSPLAIAVGDATPGPEPGYARSCSSASPRGFAPSPGSQQSGYGGGLGAGLGGYGAPGVAGLGVPGSPSFLNGSTATSPFAIMPSSPPLAAASSMSLPAAAPTTSVFSFSPVNMISAVKQRSAFAPVLRPPSSPPQACPRAHGEGLPDQSFEDSDKFHSPARGLQGLAYS
B7: MKL2, Q9ULH7 (protein)
chain: MIDSSKKQQQGFPEILTAGDFEPLKEKECLEGSNQKSLKEVLQLRLQQRRTREQLVDQGIMPPLKSPAAFHEQIKSLERARTENFLKHKIRSRPDRSELVRMHILEETFAEPSLQATQMKLKRARLADDLNEKIAQRPGPMELVEKNILPVDSSVKEAIIGVGKEDYPHTQGDFSFDEDSSDALSPDQPASQESQGSAASPSEPKVSESPSPVTTNTPAQFASVSPTVPEFLKTPPTADQPPPRPAAPVLPTNTVSSAKPGPALVKQSHPKNPNDKHRSKKCKDPKPRVKKLKYHQYIPPDQKGEKNEPQMDSNYARLLQQQQLFLQLQILSQQKQHYNYQTILPAPFKPLNDKNSNSGNSALNNATPNTPRQNTSTPVRKPGPLPSSLDDLKVSELKTELKLRGLPVSGTKPDLIERLKPYQEVNSSGLAAGGIVAVSSSAIVTSNPEVTVALPVTTLHNTVTSSVSTLKAELPPTGTSNATRVENVHSPLPISPSPSEQSSLSTDDTNMADTFTEIMTMMSPSQFLSSSPLRMTNNEDSLSPTSSTLSNLELDAAEKDRKLQEKEKQIEELKRKLEQEQKLVEVLKMQLEVEKRGQQQRPLEAQPSAPGHSVKSDQKHGSLGSSIKDEASLPDCSSSRQPIPVASHAVGQPVSTGGQTLVAKKAVVIKQEVPVGQAEQQSVVSQFYVSSQGQPPPAVVAQPQALLTTQTAQLLLPVSIQGSSVTSVQLPVGSLKLQTSPQAGMQTQPQIATAAQIPTAALASGLAPTVPQTQDTFPQHVLSQPQQVRKVFTNSASSNTVLPYQRHPAPAVQQPFINKASNSVLQSRNAPLPSLQNGPNTPNKPSSPPPPQQFVVQHSLFGSPVAKTKDPPRYEEAIKQTRSTQAPLPEISNAHSQQMDDLFDILIKSGEISLPIKEEPSPISKMRPVTASITTMPVNTVVSRPPPQVQMAPPVSLEPMGSLSASLENQLEAFLDGTLPSANEIPPLQSSSEDREPFSLIEDLQNDLLSHSGMLDHSHSPMETSETQFAAGTPCLSLDLSDSNLDNMEWLDITMPNSSSGLTPLSTTAPSMFSADFLDPQDLPLPWD

molecular target: nucleoprotein N of Crimean-Congo hemorrhagic fever virus; experiment: AlphaScreen luminescence signal relative to Venus negative control (fold); higher = stronger binding to CCHFV N
Protocol: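 AlphaScreen binding of cell-free made, FLAG-GST-tagged human transcription factors and regulators (crude translation products) to biotinylated N protein; signal as fold of the FLAG-GST-Venus control. One pass.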

Question: How did the AlphaScreen luminescence signal turn out when B1 was run?
Answer: Its AlphaScreen luminescence signal is 5.16.

Question: For B2, which AlphaScreen luminescence signal is on record?
Answer: The AlphaScreen luminescence signal was 2.56.

Question: For B3, which AlphaScreen luminescence signal is on record?
Answer: The AlphaScreen luminescence signal was 4.23.

Question: Which AlphaScreen luminescence signal does the source give for B4 here?
Answer: Its AlphaScreen luminescence signal is 1.35.

Question: B5 was tested. Which AlphaScreen luminescence signal did it give?
Answer: Its AlphaScreen luminescence signal is 1.81.

Question: With B6 as the binder, how does the AlphaScreen luminescence signal read?
Answer: Its AlphaScreen luminescence signal is 2.23.

Question: Which AlphaScreen luminescence signal does the source give for B7 here?
Answer: Its AlphaScreen luminescence signal is 2.47.
